Screen size: about 39,000 compounds; about 220 (0.56%) showed activity. Some of the results follow.
What follows are compounds tested on Escherichia coli K-12 BW25113 (assay: relative growth (OD600 normalised to plate interquartile mean) (fraction); higher = less growth inhibition, active = 0.2 or less). Details: 50 µM; LB; incubation time: overnight (16-24 h).
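Note: static incubation at 37 °C against the wild-type strain, values averaged over two biological replicates.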

Structure (SMILES)	relative growth
C[C@@H]1CN([C@H](C)CO)C(=O)c2cc(NS(=O)(=O)c3ccc(F)cc3)ccc2O[C@@H](C)CCCCO[C@@H]1CN(C)C(=O)C1CCCCC1	inactive: 0.993
C[C@H]1CCCCO[C@H](CN(C)CC2CCCCC2)[C@@H](C)CN([C@@H](C)CO)C(=O)c2cc(NC(=O)Nc3ccc(F)cc3)ccc2O1	inactive: 0.996
C[C@H](CO)N1C[C@H](C)[C@H](CN(C)C)Oc2cc(C#CCN(C)C)ccc2S1(=O)=O	inactive: 0.962
Cc1noc(C)c1NC(=O)Nc1ccc2c(c1)C(=O)N([C@H](C)CO)C[C@H](C)[C@@H](CN(C)Cc1ccc(C(=O)O)cc1)OCCCC[C@@H](C)O2	inactive: 0.894
C[C@@H]1CN([C@@H](C)CO)C(=O)Cc2cc(NS(=O)(=O)c3ccc(F)cc3)ccc2O[C@@H]1CN(C)C(=O)Nc1cccc2ccccc12	inactive: 1.03
Cc1cc(SCc2ccc(F)cc2)c(C)cc1Cl	inactive: 0.874
C[C@H]1CN([C@@H](C)CO)C(=O)Cc2cc(NC(=O)Nc3cccc4ccccc34)ccc2O[C@H]1CN(C)S(=O)(=O)c1cccs1	inactive: 1.01
C[C@H]1CCCCO[C@@H](CN(C)S(=O)(=O)c2ccc(F)cc2)[C@@H](C)CN([C@@H](C)CO)C(=O)c2cc(NS(=O)(=O)c3cn(C)cn3)ccc2O1	inactive: 0.997
C[C@H](CO)N1C[C@H](C)[C@H](CN(C)C(=O)C2CCOCC2)Oc2cc(C#Cc3ccncc3)ccc2S1(=O)=O	inactive: 1
C[C@@H]1CN([C@H](C)CO)C(=O)c2cc(NC(=O)Cn3cnnn3)ccc2O[C@@H]1CN(C)CC1CC1	inactive: 1.02
OCC(CO)N[C@H]1C[C@](O)(CO)[C@@H](O)[C@H](O)[C@H]1O	inactive: 0.996
Cc1noc(C)c1S(=O)(=O)N(C)C[C@H]1Oc2ccc(NS(=O)(=O)c3cn(C)cn3)cc2CC(=O)N([C@@H](C)CO)C[C@@H]1C	inactive: 0.999
COc1ccc(NC(=O)Nc2ccc3c(c2)C(=O)N([C@H](C)CO)C[C@H](C)[C@@H](CN(C)C(=O)NC2CCCCC2)OCCCC[C@@H](C)O3)cc1	inactive: 1
Cc1ccc(S(=O)(=O)Nc2ccc3c(c2)C(=O)N([C@@H](C)CO)C[C@@H](C)[C@@H](CN(C)C(=O)Nc2ccc(C(F)(F)F)cc2)OCCCC[C@@H](C)O3)cc1	inactive: 0.991
C[C@@H]1CN([C@H](C)CO)C(=O)CCCn2cc(nn2)CO[C@H]1CN(C)S(C)(=O)=O	inactive: 0.99
CC(=O)O[C@H]1CC[C@]2(C)[C@H]3CC[C@@]4(C)[C@H](c5ccoc5)OC(=O)[C@H]5O[C@]54[C@]3(C)[C@H](OC(C)=O)C[C@H]2C1(C)C	inactive: 0.999
Cc1noc(C)c1S(=O)(=O)Nc1ccc2c(c1)C(=O)N([C@@H](C)CO)C[C@H](C)[C@H](CN(C)C(=O)Nc1ccccc1)O2	inactive: 1.05
CC(C)NC(=O)N(C)C[C@@H]1Oc2ccc(NS(=O)(=O)c3ccc(Cl)cc3)cc2C(=O)N([C@@H](C)CO)C[C@@H]1C	inactive: 1.02
C[C@H](CO)N1C[C@H](C)[C@H](CN(C)C(=O)Nc2cccc3ccccc23)Oc2c(NC(=O)Nc3cccc4ccccc34)cccc2C1=O	inactive: 1.03

Structure (SMILES)	relative growth
C=CCN1C[C@H](C(N)=O)CC1=O	inactive: 1.02
C[C@@H]1CN([C@@H](C)CO)C(=O)c2cccc(NC(=O)Nc3cccc4ccccc34)c2O[C@H]1CN(C)S(=O)(=O)c1ccccc1F	inactive: 1.03
COc1ccc(CN(C)C[C@H]2OCCCC[C@H](C)Oc3ccc(NC(=O)Nc4ccc(F)cc4)cc3C(=O)N([C@H](C)CO)C[C@@H]2C)cc1	inactive: 0.929
Cc1ccc(S(=O)(=O)N(C)C[C@@H]2Oc3ccc(NC(=O)Nc4ccc(C(F)(F)F)cc4)cc3C(=O)N([C@H](C)CO)C[C@H]2C)cc1	inactive: 1.03
C[C@H]1CN([C@@H](C)CO)S(=O)(=O)c2ccc(C#CCN(C)C)cc2O[C@H]1CN(C)C(=O)c1ccccc1F	inactive: 1
CSCC[C@H](NC(=O)[C@H](Cc1ccc(OS(=O)(=O)O)cc1)NC(=O)[C@@H](N)CC(=O)O)C(=O)NCC(=O)N[C@@H](Cc1c[nH]c2ccccc12)C(=O)N[C@@H](CCSC)C(=O)N[C@@H](CC(=O)O)C(=O)N[C@@H](Cc1ccccc1)C(N)=O	inactive: 1
CC(=O)N(C)C[C@@H]1Oc2ncc(C#CC(C)(C)O)cc2C(=O)N([C@@H](C)CO)C[C@@H]1C	inactive: 1.01
C[C@H]1CN([C@@H](C)CO)C(=O)Cc2cc(NC(=O)CCN3CCOCC3)ccc2O[C@@H]1CN(C)Cc1ccc(C(=O)Nc2ccccc2N)cc1	inactive: 1.03
COc1ccc(NC(=O)N(C)C[C@@H]2Oc3ncc(C#C[C@H](C)O)cc3C(=O)N([C@H](C)CO)C[C@@H]2C)cc1	inactive: 0.994
O=C(NN1C(=O)CSC1=S)c1ccco1	inactive: 0.977
Cc1ccc(S(=O)(=O)Nc2cccc3c2O[C@H](CN(C)C(=O)Nc2cccc4ccccc24)[C@@H](C)CN([C@@H](C)CO)C3=O)cc1	inactive: 0.889
C[C@@H]1CN([C@H](C)CO)C(=O)c2cc(NC(=O)Nc3ccc(F)cc3)ccc2O[C@@H](C)CCCCO[C@H]1CN(C)C(=O)NC1CCCCC1	inactive: 1.01
Cc1cccc(S(=O)(=O)N2C[C@@H](O)COC[C@H]3O[C@@H](CC(=O)N4CCN(C)CC4)CC[C@@H]32)c1	inactive: 1
O=C(C[C@H]1C=C[C@H](NS(=O)(=O)c2ccc(F)cc2)[C@@H](CO)O1)N1CCC(Cc2ccccc2)CC1	inactive: 0.999
COc1cccc(S(=O)(=O)N(C)C[C@H]2Oc3ncc(-c4cccc(C(=O)N(C)C)c4)cc3C(=O)N([C@H](C)CO)C[C@@H]2C)c1	inactive: 0.987
Cc1ccc(S(=O)(=O)N[C@@H]2C=C[C@H](CC(=O)NCCN3CCCCC3)O[C@H]2CO)cc1	inactive: 1.02
C[C@@H]1CN([C@H](C)CO)C(=O)c2cc(NC(=O)Nc3ccc(C(F)(F)F)cc3)ccc2O[C@@H]1CN(C)CC1CCCCC1	inactive: 0.965
C[C@](N)(Cc1ccc(O)cc1)C(=O)O	inactive: 0.995
COc1ccc(S(=O)(=O)Nc2ccc3c(c2)C(=O)N([C@H](C)CO)C[C@@H](C)[C@@H](CN(C)Cc2ccc(Cl)c(Cl)c2)O3)cc1	inactive: 0.918

Structure (SMILES)	relative growth
Cc1noc(C)c1NC(=O)Nc1ccc2c(c1)C(=O)N([C@H](C)CO)C[C@@H](C)[C@@H](CN(C)C(=O)Nc1ccc(C(F)(F)F)cc1)OCCCC[C@@H](C)O2	inactive: 1.03
C[C@H](CO)N1C[C@H](C)[C@H](CN(C)S(=O)(=O)c2ccc(-n3cccn3)cc2)OCc2cnnn2CCCC1=O	inactive: 1.03
C[C@@H]1CN([C@H](C)CO)C(=O)c2cc(NC(=O)Nc3ccc(C(F)(F)F)cc3)ccc2O[C@@H](C)CCCCO[C@@H]1CN(C)S(=O)(=O)c1ccc(F)cc1	inactive: 1.04
O=C(O)[C@H]1CCCNC1	inactive: 0.991
CN1C(=O)/C(=C\NCc2ccccc2)C(=O)c2c1n(C)c(=O)n(C)c2=O	inactive: 1.01
CC(C)NC(=O)Nc1ccc2c(c1)CC(=O)N([C@@H](C)CO)C[C@@H](C)[C@@H](CN(C)S(=O)(=O)c1ccccc1)O2	inactive: 0.984
C[C@@H]1CN([C@H](C)CO)C(=O)c2cccc(NC(=O)c3ccc(-c4nccs4)cc3)c2O[C@@H]1CN(C)Cc1ccc(Oc2ccccc2)cc1	inactive: 1.03
C[C@@H]1CN([C@H](C)CO)S(=O)(=O)c2ccc(C#CCN(C)C)cc2O[C@@H]1CN(C)Cc1ccccn1	inactive: 1
COc1ccc(S(=O)(=O)Nc2cccc3c2O[C@@H](CN(C)S(=O)(=O)c2cn(C)cn2)[C@H](C)CN([C@H](C)CO)C3=O)cc1	inactive: 1
C[C@H](CO)N1C[C@H](C)[C@H](CN(C)C(=O)Nc2cccc3ccccc23)OCCCC[C@H](C)Oc2ccc(NS(=O)(=O)c3ccc(Cl)cc3)cc2C1=O	inactive: 1.04
C[C@H](CO)N1C[C@H](C)[C@@H](CN(C)S(=O)(=O)c2ccc(F)cc2)Oc2c(NC(=O)c3cnccn3)cccc2C1=O	inactive: 0.996
C[C@@H]1CN([C@@H](C)CO)C(=O)c2cccc(NC(=O)Nc3ccc(F)cc3)c2O[C@@H]1CN(C)Cc1ccc(Oc2ccccc2)cc1	inactive: 1.01
O=C(Nc1ccc(Br)cc1)c1ccc(N2C(=O)c3ccc(C(=O)Nc4ccc(Br)cc4)cc3C2=O)cc1	inactive: 1.03
C[C@@H]1CN([C@@H](C)CO)C(=O)c2cc(C#CCN(C)C)cnc2O[C@H]1CN(C)C(=O)CCN1CCCCC1	inactive: 0.996
COCCOC(=O)N1C(=O)[C@@]2(c3cc(C#CCNC(N)=O)ccc31)[C@H](c1ccccc1OCCO)N1[C@H](c3ccccc3)[C@H](c3ccccc3)OC(=O)[C@H]1[C@@H]2C(N)=O	inactive: 0.996
C[C@H]1CCCCO[C@H](CN(C)Cc2ccc3c(c2)OCO3)[C@@H](C)CN([C@@H](C)CO)C(=O)c2cc(NC(=O)Nc3ccc(C(F)(F)F)cc3)ccc2O1	inactive: 1
COc1ccc([Si](C)(C)[C@@H]2[C@@H](CCn3cc(CCO)nn3)O[C@]3(C(=O)N(Cc4cccc(N5C(=O)c6cccc7cccc5c67)c4)c4ccccc43)[C@H]2C)cc1	inactive: 1.02
C[C@@H]1CN([C@@H](C)CO)C(=O)c2cc(NS(C)(=O)=O)ccc2O[C@@H]1CN(C)Cc1ccc(C(=O)O)cc1	inactive: 0.978
Cc1ccc(S(=O)(=O)Nc2ccc3c(c2)C(=O)N([C@@H](C)CO)C[C@@H](C)[C@@H](CN(C)C(=O)NC2CCCCC2)OCCCC[C@H](C)O3)cc1	inactive: 0.983
